Measurements as given in PubChem BioAssay (NCI).
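In this assay, cells in 96-well plates receive the compound at five concentrations for 48 hours. Endpoints are linearly interpolated between the surrounding concentrations. GI50 marks 50% less growth.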 Some entries of the source have several records that differ or are many. This is not the full list of results. The source may hold further records. The tests behind the records often covered other concentration ranges, not given here; a value can be the end of its range.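 TGI: total growth inhibition.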

What was measured:
Assay in all cases: NCI anticancer screen, dose series, 48 h
SNB-19 CNS = system: SNB-19 CNS
K-562 leukemia = system: K-562 leukemia
HT29 colon = system: HT29 colon
EKVX NSCLC = system: EKVX NSCLC
MCF7 breast = system: MCF7 breast
BT-549 breast = system: BT-549 breast
UACC-62 melanoma = system: UACC-62 melanoma
SF-539 CNS = system: SF-539 CNS
MDA-MB-435 = system: MDA-MB-435
OVCAR-3 ovarian = system: OVCAR-3 ovarian
OVCAR-5 ovarian = system: OVCAR-5 ovarian
OVCAR-4 ovarian = system: OVCAR-4 ovarian
IGROV1 ovarian = system: IGROV1 ovarian
HCT-116 colon = system: HCT-116 colon
HS 578T breast = system: HS 578T breast
NCI/ADR-RES ovarian = system: NCI/ADR-RES ovarian
UO-31 renal = system: UO-31 renal
HL-60(TB) leukemia = system: HL-60(TB) leukemia
SK-MEL-5 melanoma = system: SK-MEL-5 melanoma
SF-295 CNS = system: SF-295 CNS
SW-620 colon = system: SW-620 colon
HCC-2998 colon = system: HCC-2998 colon
MDA-MB-231 breast = system: MDA-MB-231 breast
HCT-15 colon = system: HCT-15 colon
NCI-H226 lung = system: NCI-H226 lung
LOX IMVI melanoma = system: LOX IMVI melanoma
T-47D breast = system: T-47D breast

COC(=O)[C@@H](C)C[C@H](Cc1ccc(F)cc1)NC(=O)c1csc([C@@H](C[C@H](C(C)C)N(C)C(=O)[C@@H](NC(=O)[C@H]2CCCCN2C)C(C)C)OC(C)=O)n1
GI50 (SNB-19 CNS): 0.585 nM and 9.16 nM | GI50 (K-562 leukemia): 0.444 nM and 4.96 nM | GI50 (HT29 colon): 0.406 nM and 5.46 nM | GI50 (EKVX NSCLC): 4.49 nM and 46.9 nM | GI50 (MCF7 breast): 0.3 nM and 5.61 nM | GI50 (BT-549 breast): 0.76 nM and 12.1 nM | GI50 (UACC-62 melanoma): 0.648 nM and 7.92 nM | TGI (SF-539 CNS): 6.94 nM and 96 nM | GI50 (MDA-MB-435): 0.102 nM and 1.67 nM | GI50 (OVCAR-3 ovarian): 0.31 nM and 4.2 nM | GI50 (OVCAR-5 ovarian): 4.45 nM and 69.3 nM | GI50 (OVCAR-4 ovarian): 13.7 nM and 184 nM | GI50 (IGROV1 ovarian): 1.26 nM and 15.2 nM | GI50 (HCT-116 colon): 0.469 nM and 5.94 nM | TGI (HS 578T breast): 509 nM and > 16.7 µM | GI50 (NCI/ADR-RES ovarian): 23.6 nM and 313 nM | GI50 (UO-31 renal): 7.02 nM and 186 nM | GI50 (HL-60(TB) leukemia): 0.367 nM and 3.77 nM | GI50 (SK-MEL-5 melanoma): 0.404 nM and 6.51 nM | TGI (SK-MEL-5 melanoma): 15.1 nM and 200 nM | GI50 (SF-295 CNS): 1.09 nM and 16.2 nM | GI50 (SW-620 colon): 0.533 nM and 7.08 nM | GI50 (HCC-2998 colon): 5.19 nM and 62.3 nM | TGI (MDA-MB-231 breast): 48 nM and 4.36 µM | GI50 (HCT-15 colon): 3.21 nM and 33.7 nM | GI50 (NCI-H226 lung): 3.5 nM and 119 nM | TGI (NCI-H226 lung): 91.2 nM and > 16.7 µM

NC1CCC(Nc2nc(NCc3ccc(-c4ccco4)nc3)c3ncn(C4CCCC4)c3n2)CC1 (centres undefined)
TGI (HT29 colon): 53.5 nM and 11.1 µM | TGI (OVCAR-4 ovarian): 441 nM and 10.3 µM | TGI (MDA-MB-231 breast): 578 nM and 10.8 µM | TGI (NCI-H226 lung): 685 nM and 11.8 µM | GI50 (LOX IMVI melanoma): 27.5 nM and 7.93 µM | TGI (T-47D breast): 80.7 nM and 1.28 µM

C=C1C(=O)[C@@]23CC[C@H]4[C@@](C)(CCC[C@@]4(C)C(=O)OC)[C@@H]2CC[C@]1(O)C3
TGI (K-562 leukemia): 2.05 µM and > 100 µM
